{"source": "PubChem BioAssay AID1508624", "about": "(National Center for Advancing Translational Sciences (NCATS), 2021)", "note": "Screen size: about 48,000 compounds; about 120 (0.25%) were called active. About 4% were inconclusive and are not listed. Calls follow the shape of the dose curve; as a rule, active = well fitted activation curve with a large enough effect; inconclusive = small, poorly fitted or top-dose-only effect, or another doubt; inactive = no such curve, though single readings can be large or run the other way. The list shows a part of the results.", "data": [{"assay": "Primary qHTS for Identification of Small Molecule Activators of Huntingtin-Antisense Promoter Activity; also: nearly all actives have a fitted effect of over 55% in size", "details": "HEK293 HTT-AS promoter firefly luciferase reporter (activity 0% = vehicle and -100% = no light), 24 h; series mostly up to 57.5 µM; activity change, positive = activation: at the top concentration", "in_short": "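Firefly luciferase signal from promoter-reporter HEK293 cells was scaled between vehicle (0%) and zero RLU (-100%). Compounds were tested at final concentrations of up to 57.5 uM over 24 h at 37 degrees C. PTC124 at 50 uM final served as control inhibitor.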", "values": [{"smiles": "COc1ccc(N(CC(=O)N2CCN(c3ccccc3F)CC2)S(=O)(=O)c2c(C)n[nH]c2C)cc1", "activity change, positive = activation": "inactive: -16.6%"}, {"smiles": "O=C(c1ccc(CS(=O)c2ccccc2Cl)o1)N1CCN(c2cccc(Cl)c2)CC1", "note": "(configuration not stated)", "activity change, positive = activation": "inactive: -50.2%"}, {"smiles": "CC(CNC(=O)CCCn1c(=O)c2cccn2c2cccnc21)c1ccccc1", "note": "(configuration not stated)", "activity change, positive = activation": "inactive: -22%"}, {"smiles": "COC(=O)c1ccc(O)cc1", "activity change, positive = activation": "inactive: 0.403%"}, {"smiles": "COc1cccc(CNC(=O)c2ccc(NC(=O)N3CC(C)Sc4ccccc43)cc2)c1", "note": "(configuration not stated)", "activity change, positive = activation": "inactive: -15%"}, {"smiles": "Cc1ccccc1Nc1c(-c2ccncc2)nc2ccc(Cl)cn12", "activity change, positive = activation": "inactive: 6.82%"}, {"smiles": "COc1ccc(CCNC(=O)c2ccc(CNS(=O)(=O)c3ccccc3)cc2)cc1OC", "activity change, positive = activation": "inactive: -15.6%"}, {"smiles": "COc1cc(NC(=O)c2ccc(NC(=O)N3CCSc4ncccc43)cc2)cc(OC)c1", "activity change, positive = activation": "inactive: 10.5%"}, {"smiles": "CC(C)(C)OC(=O)N1CCC(c2c(C(=O)N3CCN(C(=O)c4ccco4)CC3)cnn2-c2ccccc2)CC1", "activity change, positive = activation": "inactive: -3.05%"}, {"smiles": "Cc1cccc(CCNC(=O)C2CCCN(S(=O)(=O)c3ccc4c(c3)oc(=O)n4C)C2)c1", "note": "(configuration not stated)", "activity change, positive = activation": "inactive: -28.2%"}, {"smiles": "CCOc1cccc2sc(N(CCN(CC)CC)C(=O)c3ccco3)nc12", "activity change, positive = activation": "inactive: -11.4%"}, {"smiles": "Cc1ccc2nc(Cl)c3cc(C(=O)NC4CCCCCC4)sc3c2c1", "activity change, positive = activation": "inactive: -14.4%"}, {"smiles": "CCC1CN(C(=O)Nc2ccc(C(=O)O)cc2)c2cc(Cl)ccc2O1", "note": "(configuration not stated)", "activity change, positive = activation": "inactive: -6.29%"}, {"smiles": "O=C(CSc1cn(CC(=O)N2CCCC2)c2ccccc12)Nc1cc(C(F)(F)F)ccc1Cl", "activity change, positive = activation": "inactive: -32.5%"}, {"smiles": "Cc1cccc(NC(=O)Cc2csc(COc3cccc(C)c3)n2)c1", "activity change, positive = activation": "inactive: 12.7%"}, {"smiles": "Cc1cccc(C(=O)NCC(=O)OCc2cc(=O)n3nc(C4CC4)sc3n2)c1", "activity change, positive = activation": "inactive: -7.08%"}, {"smiles": "Cc1cc(C)cc(NC(=O)CCc2c(C)nc3c4cccnc4nn3c2C)c1", "activity change, positive = activation": "inactive: -12.7%"}, {"smiles": "CCOC(=O)Cn1c(=O)n(C2CCCCC2)c2nc(-c3cccc(OC)c3)nc(C(N)=O)c21", "activity change, positive = activation": "inactive: -0.384%"}, {"smiles": "CCc1nn2c(=O)c(S(=O)(=O)Nc3cccc(F)c3)c(C)nc2s1", "activity change, positive = activation": "inactive: -11.8%"}, {"smiles": "CCC(Sc1nc2nccnc2c(=O)n1Cc1ccc(C)cc1)C(=O)NC1CCCCC1", "note": "(configuration not stated)", "activity change, positive = activation": "inactive: -17.5%"}, {"smiles": "CCOc1ccc(S(=O)(=O)Nc2ccc(-c3ccc(OC)nn3)cc2)cc1", "activity change, positive = activation": "inactive: -14.7%"}, {"smiles": "Cc1cccc(-n2c(SCC(=O)c3ccccc3)nnc2-c2ccc(Br)cc2)c1", "activity change, positive = activation": "inactive: -6.78%"}, {"smiles": "Cc1ccc(Cl)cc1NS(=O)(=O)c1cc2c3c(c1)CC(=O)N3CCC2", "activity change, positive = activation": "inactive: -11.7%"}, {"smiles": "Cc1c2cnn(-c3ccccc3)c(=O)c2c(C)n1CC(=O)NCc1ccccc1", "activity change, positive = activation": "inactive: -14.5%"}, {"smiles": "CCCNC(=O)N1CCN(S(=O)(=O)c2ccc3c(ccn3C)c2)CC1", "activity change, positive = activation": "inactive: -29.3%"}, {"smiles": "COc1cc2c(c(OC)c1)C(c1cc(OC)c(OC)c(OC)c1)CC(=O)N2", "note": "(configuration not stated)", "activity change, positive = activation": "inactive: -12.7%"}, {"smiles": "Cc1ccc(CNC(=O)Cn2c(=O)n(-c3cccc(Cl)c3)c(=O)c3sc4ccccc4c32)cc1", "activity change, positive = activation": "inactive: -15.4%"}, {"smiles": "CCOc1ccc(-c2cc3nc(C4CCN(C(=O)OC(C)(C)C)CC4)c(C(=O)Nc4ccc(C)cc4C)cn3n2)cc1", "activity change, positive = activation": "inactive: 5%"}, {"smiles": "COc1ccccc1N1CCN(C(=O)c2cc3ccc4ccc(C)[nH]c4c3n2)CC1", "activity change, positive = activation": "inactive: -16.2%"}, {"smiles": "CCOC(=O)C1CCCN(S(=O)(=O)c2csc(C(N)=O)c2)C1", "note": "(configuration not stated)", "activity change, positive = activation": "inactive: -29.7%"}, {"smiles": "Cc1ccc2c(c1)-c1c(cnn1CC(=O)Nc1ccccc1C#N)CO2", "activity change, positive = activation": "inactive: -19.7%"}, {"smiles": "CC(=O)N1CCCc2cc(S(=O)(=O)N3CCCC(C(=O)N4CCN(c5cc(C)ccc5C)CC4)C3)ccc21", "note": "(configuration not stated)", "activity change, positive = activation": "inactive: -52.2%"}, {"smiles": "Cc1ccc(OC(=O)CSc2nnc(CNC(=O)c3ccccc3)o2)cc1", "activity change, positive = activation": "inactive: 2.92%"}, {"smiles": "Cc1ccc(C(=O)COC(=O)CCC(=O)Nc2ccc(Oc3cc(C)ccc3C(C)C)cc2)cc1", "activity change, positive = activation": "inactive: -20.7%"}, {"smiles": "CCc1ccc(C2=NN(CCC(=O)NCCc3ccc(Cl)cc3)C(=O)CC2)cc1", "activity change, positive = activation": "inactive: -19%"}, {"smiles": "O=C(NCC(c1ccccc1)c1ccccc1)c1nn(-c2ccccc2F)nc1CO", "activity change, positive = activation": "inactive: -37.3%"}, {"smiles": "Cc1ccc(CCNC(=O)CCSCc2ccccc2Cl)cc1", "activity change, positive = activation": "inactive: -6.27%"}, {"smiles": "CCCn1c2ccccc2c2cnn(CC(=O)NC(CCSC)C(=O)OC)c(=O)c21", "note": "(configuration not stated)", "activity change, positive = activation": "inactive: -8.74%"}, {"smiles": "CCOC(=O)c1nnc2c(-c3ccc(Cl)cc3)c(C)nn2c1C", "activity change, positive = activation": "inactive: -12.7%"}, {"smiles": "Cc1c(C(=O)NCCN(C)C)sc2nc3n(c(=O)c12)CCC3", "activity change, positive = activation": "inactive: -4.94%"}, {"smiles": "C[C@@H]1C[C@H]2[C@@H]3C[C@H](F)C4=CC(=O)C(Cl)=C[C@]4(C)[C@@]3(F)[C@@H](O)C[C@]2(C)[C@@]1(O)C(=O)CO", "activity change, positive = activation": "inactive: -8.23%"}, {"smiles": "COc1cc(NC(=O)c2c(C)oc3ncnc(N4CCCCC4)c23)cc(OC)c1", "activity change, positive = activation": "inactive: -17%"}, {"smiles": "Cc1ccc2c(c1)c(=O)c1ccccc1n2CCCC(=O)Nc1c(F)cccc1F", "activity change, positive = activation": "inactive: -10.2%"}, {"smiles": "CCCS(=O)(=O)c1nc(S(=O)(=O)c2ccc(C)cc2)c(NCc2ccccc2)s1", "activity change, positive = activation": "inactive: -19.1%"}, {"smiles": "CN(Cc1ccccc1)C(=O)c1cn(C)c2ccc(S(=O)(=O)N(C)C3CCCCC3)cc2c1=O", "activity change, positive = activation": "inactive: -5.08%"}, {"smiles": "CCOC(=O)c1ccc(N2C(=O)c3n[nH]c(-c4cccs4)c3C2c2ccc(Cl)cc2Cl)cc1", "note": "(configuration not stated)", "activity change, positive = activation": "inactive: -77.5%"}, {"smiles": "COc1ccc(/C=C(/C#N)c2nc(-c3ccc(Br)cc3)cs2)cc1", "activity change, positive = activation": "inactive: -16.7%"}]}]}
